Reference: the supplement of paper PMC10126150
Values marked as one replicate rest on one cluster of the flow cell; about a third of the high ones do not repeat.

Tested on: ATP
Assay: switch fluorescence ratio, 500 uM ATP over buffer (Cy3 cluster intensity, sum of 5 cycles each) (fold (ratio)); higher = stronger signal-on switching upon ATP binding; sequences stand for … in TCGTCGGCAGCGTCAGATGTGTATAAGAGACAGTTTTTTTTTTTTTTTTTTTTTTTTT…TC
Conditions: aptamer strand: ATP DNA aptamer (quencher-CACCTGGGGGAGTATTGCGGAGGAAGG + anchor), 100 nM annealed; ATP concentration: 500 uM; one replicate
Method in brief: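 After annealing to 100 nM quencher-labelled ATP aptamer, Cy3-labelled switching-strand clusters on a modified Illumina MiSeq flow-cell were imaged in selection buffer. A second image followed after 15 min with 500 uM ATP at 22 °C, and five such buffer/ATP cycles were done, each separated by NaOH stripping and re-annealing. The fluorescence ratio, averaged per switch-domain sequence, is summed target-cycle over summed buffer-cycle Cy3 intensity per cluster, with clusters outside 100-1000 RFU excluded.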
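Note: ATP exposure 15 min at 22 °C before imaging.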

Sequence | switch fluorescence ratio
TGACAACGAG | 1.03
CCCAAAGAAT | 1.19
GATGGTTGTA | 1.02
CAGTATTTGT | 0.999
GAGCAAGGAT | 1.41
TAATGGTGTC | 0.994
CCGGTTGTGT | 0.983
TCCACTAGAC | 2.4
AAAAATACA | 1
ACAAAGCCGT | 0.968
AACACGCCGG | 1.07
GTTACAGCGA | 1.05
TCCTTTGCCT | 1.22
AGCATCGAGG | 1.04
AAACTTTACT | 1.22
GGGCTCAAGA | 0.978
CATTATTATC | 0.974
CAGAATTGGA | 0.958
CTTGGGCACC | 1.02
TGAGACACGT | 1
CAGGCTCAAA | 1
AGAGCCTAAA | 0.939
CTATACCGTA | 1.07
CAAAAAAAAT | 1.04
TAGTTTTCAC | 0.98
TAAAAATCTG | 1.07

Sequence | switch fluorescence ratio
AATATCGTAC | 1.18
ACAAACTGTG | 1.09
CCTAGTGTTA | 0.993
TCCAGGGTGT | 2.54
ATATTTGAAT | 0.982
TACTATGAGC | 1.02
TAGTTCAACA | 1.03
GGCGTTGTCT | 1
GGATCACCAG | 1.04
CCGTCTGGGC | 1.03
AATTCATTGC | 0.988
CGTTCATTAA | 0.967
GACGGTAAGG | 1.02
GGTAGCTGTT | 1.04
CGACCGCGGA | 1.18
ATGCAGTAAG | 1.01
TGGTTTACTT | 0.983
GCACGAGAGC | 1.03
AAAAACATTC | 0.978
TACAGTGCTG | 1.01
TGCATCGATC | 1
TGGGCTTTAT | 1.01
AGCCGTTAGC | 1.01
AGAGCTGATC | 1.02
TGGGTCGGCC | 0.995
TCCTAGACT | 1.01

Sequence | switch fluorescence ratio
CGGCATCTAT | 1.01
AAAGCTTGTT | 1
CCTTATCCAT | 0.998
TAACGCGCGG | 1
TCTTAGATCA | 1.01
CTTTTGGAGC | 1.1
AGAAATGGCT | 0.988
CCGCTACGTG | 1.83
AAGGGACCC | 1
TCTGTGACGT | 1.03
AGCGACGGG | 0.997
AAAGACGGGA | 1
CATCAGGCGA | 1.47
GCCACTAGCC | 1.02
TACACTATC | 1.07
AAGGGGAGCT | 1.03
TATTACATCC | 1.03
AGAGGTACT | 1.01
GAGGAAGTAA | 1.07
AGCACCTTTT | 0.994
GGACACTCAA | 1.02
TCGACGTATT | 1.09
CCAATCATTC | 1.1
AATTCTCAAG | 0.999
AAGACAGTCT | 0.996
CATACATTGC | 1.04

Sequence | switch fluorescence ratio
GCACCTAGGA | 1.08
CAGTCAATTC | 2.6
TATTGCCGCG | 1.01
ACGTATAGTA | 0.995
GTGATAAA | 0.982
TGTAAGATA | 1
TGGTCGAATT | 0.958
TCAAAGGGTG | 1.15
TTGAAGGTAT | 1.14
TGTAGTGAGG | 0.969
GTGGTGGGCA | 1
ATTTTGATCG | 1.01
TCCATGTTGC | 0.932
TATTACCCGT | 1.02
GCGCCGGTAA | 1.06
AGACTGGTGA | 1.08
GGTGTGTCGG | 0.946
CCATCAGTAA | 1.49
ATGCCGAGTA | 0.977
ATCCAATCAA | 1.03
TGACTCGGCA | 1.43
CACAGAGGTT | 0.984
TAGCGCAAGG | 1.07
CTGGTGCAAC | 1.13
TAGTGCACAT | 0.94
AGGATTAAAG | 1.01

Sequence | switch fluorescence ratio
TTAATGCGGA | 0.987
ACTAGCACCC | 1.11
TGTTAGATCT | 0.99
GTTATACTTG | 0.986
ATAGCAGATC | 1.13
TGAAAAATCG | 1
ACATCTGAGC | 1.05
AGTCGCGCGT | 1.05
TTCGCAGATA | 1.59
TATGCAGGAT | 1.01
ATTTGAGGCA | 0.984
AGGTCAGATA | 1.03
GAGTGCGATG | 1.01
TACGCCAATG | 1.18
GGATGGGGTA | 0.996
CGCGGCATCT | 1.08
GCTAGCAGG | 0.979
AGTAAATTT | 1.02
TCATTGTCGA | 0.972
TATCGTAATC | 1.41
GCATTACATA | 1.07
CGGACTGTT | 1.01
AATTAAACG | 1.02
TCAGGTATAT | 0.987
TAACTTGGGG | 0.967
TATAAAATA | 0.962

Sequence | switch fluorescence ratio
GATCGCGTAA | 1
ATCGAGCGCG | 1.01
ATCTCTCGTA | 1
ATCAGAATTA | 0.993
GGAATGACCT | 0.971
CAACAGGGTC | 1.05
GCGACGGACC | 1.56
GCCTGGACGG | 0.975
AGTGAGAAGT | 1.02
CTCAATGGAG | 1.03
TAGCGTTGGC | 1.03
TATAACTCG | 0.982
CGCAGGAGGC | 1.1
ATACGGGTC | 0.977
AATTTCCTCA | 1.02
TATCTATGCT | 0.983
ATGCCTACGT | 1.04
TTTGAACTGA | 0.964
CCTTGGGATG | 0.991
TAAGTAGC | 1.02
CTAGTTTCG | 1.01
CCAAACGTCT | 1.05
TGGTCTTCAC | 0.985
TGTAGTCAGG | 0.999
AGGAGCTTCT | 1
CGATTATGAT | 0.992

Sequence | switch fluorescence ratio
GCAATTTGTA | 0.986
CATCCCGTCC | 1.27
TTAGTGAACC | 1.04
TCACGGTCTT | 1.01
TGGAAGGCGA | 1
AGGGTGAGGA | 1.02
TGGTTGGATT | 0.939
TTACTTCCT | 1.04
GGTCTTGGG | 0.977
TTGGGTATT | 1.02
ACTTGAGCG | 1.08
GAGAGCCTGG | 0.961
TGAGTCCAAG | 1.02
CGCATAACAA | 1.22
TGAGTACCTG | 0.976
TGAACGAGGC | 0.969
AACTTTGTCT | 0.997
AACATCGTCC | 1.12
CCACTCATTT | 1.03
TTTACTGACC | 1.15
TATAGAGGCG | 1.03
GGTCTGTATC | 0.961
TTTGGTTAG | 0.936
TAGGGCCTAT | 0.923
ACCGTCGGTA | 1.04
GAGGATGTGG | 1.02

Sequence | switch fluorescence ratio
TAAACGGA | 1.01
AGATTGCAGT | 0.978
GTAGATAGGT | 0.965
GCCGATGTGG | 1.03
TTTAGCAAAG | 1.07
GGCACTACTC | 3.37
ACAGAGATCG | 0.997
TCCTATCTAT | 0.954
TCTTTTGAA | 0.954
TTCGTGTTTC | 0.996
TACGCCATAG | 1.66
AGCGTTGCCA | 1.01
TAGTTTGTAT | 1.07
AGCTGAACCG | 1.02
TCTAGGGGAA | 1.01
GATGTAAGTT | 0.981
GTTCATGGAG | 1.01
TCCTCTCATA | 2.56
ATTTTGATGG | 0.954
